# Patent US10040893B2, “Polymeric photoinitiators and photoinitiator monomers” (Coloplast A/S, priority 2012, dated 2018)
# Conditions: 0.001% w/v in methanol, 1 cm path length
smiles,measurement,value
"Cc1ccc(C(=O)c2ccccc2)cc1 [Speedcure MBP, 4-methylbenzophenone]",absorption maximum (band at 316 nm),non-existent
